Measured values: PubChem BioAssay AID504332 (National Center for Advancing Translational Sciences (NCATS), 2011)
Screen size: about 350,000 compounds; about 31,000 (8.9%) were called active. Inconclusive results, whose numbers are uncertain, are shown with a selection of clear calls. The call rests on the fitted dose curve; in most records, active means well fitted inhibition curve with a large enough effect; inconclusive means small, poorly fitted or top-dose-only effect; inactive means no such curve, though single readings can be large or run the other way. A potency beside an inconclusive call is a rough fit, not a confirmed value.

biological target: Histone-lysine N-methyltransferase EHMT2 (Homo sapiens) (UniProt Q96KQ7); test: qHTS Assay for Inhibitors of Histone Lysine Methyltransferase G9a; conditions: G9a H3K9 monomethylation, AlphaScreen, 2 h; activity, negative = inhibition: at 59 µM (top of the series) unless noted; further: nearly all actives have a fitted effect of over 75% in size
Procedure, shortened: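 Quantitative HTS format: methyltransferase activity on a biotin-tagged H3K9 peptide is measured by AlphaScreen, using a rabbit anti-monomethyl-H3K9 antibody with streptavidin donor and anti-IgG acceptor beads. Final levels are 20 nM enzyme, 500 nM peptide, 20 uM SAM; 2 h RT.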
On the % scale 0 is the no-effect control and ±100 the full control effect; potency means the concentration at half of the fitted maximal effect; tags describe the fitted curve by direction and shape.

Chain of UniProt Q96KQ7 (Q96KQ7 whole entry, looked up): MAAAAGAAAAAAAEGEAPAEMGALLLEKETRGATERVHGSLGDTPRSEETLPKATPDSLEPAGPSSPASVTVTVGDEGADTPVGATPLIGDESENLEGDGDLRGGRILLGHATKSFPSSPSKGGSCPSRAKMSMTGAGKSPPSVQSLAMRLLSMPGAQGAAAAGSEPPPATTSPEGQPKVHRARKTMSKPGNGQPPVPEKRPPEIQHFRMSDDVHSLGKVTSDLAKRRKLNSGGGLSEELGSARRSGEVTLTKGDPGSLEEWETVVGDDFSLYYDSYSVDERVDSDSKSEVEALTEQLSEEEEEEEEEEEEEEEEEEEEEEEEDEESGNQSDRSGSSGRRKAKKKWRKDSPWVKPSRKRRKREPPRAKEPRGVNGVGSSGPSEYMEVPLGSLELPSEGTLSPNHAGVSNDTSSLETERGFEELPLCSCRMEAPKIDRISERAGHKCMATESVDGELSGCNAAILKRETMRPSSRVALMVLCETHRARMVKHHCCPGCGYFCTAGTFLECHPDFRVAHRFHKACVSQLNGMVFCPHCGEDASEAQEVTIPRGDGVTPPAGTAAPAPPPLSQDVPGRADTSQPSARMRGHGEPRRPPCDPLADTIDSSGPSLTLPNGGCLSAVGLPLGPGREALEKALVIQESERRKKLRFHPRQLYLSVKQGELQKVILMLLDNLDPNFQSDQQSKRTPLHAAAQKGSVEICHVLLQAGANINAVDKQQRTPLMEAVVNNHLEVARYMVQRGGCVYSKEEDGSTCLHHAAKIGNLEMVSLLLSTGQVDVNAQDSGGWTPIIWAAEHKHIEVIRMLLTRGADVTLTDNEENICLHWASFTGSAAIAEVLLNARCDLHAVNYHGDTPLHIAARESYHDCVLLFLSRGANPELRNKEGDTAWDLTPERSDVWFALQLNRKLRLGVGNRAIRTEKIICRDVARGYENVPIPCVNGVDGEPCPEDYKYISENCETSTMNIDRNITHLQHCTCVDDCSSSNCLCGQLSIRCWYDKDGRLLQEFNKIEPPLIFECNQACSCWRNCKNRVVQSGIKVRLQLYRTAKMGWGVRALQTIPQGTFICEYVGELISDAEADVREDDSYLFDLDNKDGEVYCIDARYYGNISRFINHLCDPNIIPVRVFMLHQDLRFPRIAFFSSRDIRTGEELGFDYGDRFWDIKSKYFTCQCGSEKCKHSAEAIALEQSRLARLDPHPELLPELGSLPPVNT

Row | SMILES | Potency | activity, negative = inhibition
1 | Oc1cnc2ccccc2c1CN1CCOCC1 | inconclusive: 28.2 µM [inhibitor, single point] | –
2 | CCOc1ccc(-c2c(C)nn3c(-c4ccccc4)c(C(=O)NCCOC)cnc23)cc1OCC | inactive | –
3 | CC(=O)c1c(C(C)=O)c(C)n(C(c2ccccc2)c2ccccc2)c1C | active: 31.6 µM | –
4 | COC(=O)C(C)Sc1ccc2nnc(-c3cccc(F)c3)n2n1 (stereo not given) | inconclusive: 28.2 µM [inhibitor, single point] | –
5 | COc1ccc2c(c1)C(c1ccc(C)cc1)CC(=O)O2 (stereo not given) | inactive | –
6 | Cc1cccc(-n2c(C)n[nH]c2=S)c1 | – | inconclusive: -67.3% [inhibitor] [at 0.501 µM]
7 | O=C(Cc1cccs1)Nc1ccc(S(=O)(=O)N2CCCCC2)cc1 | active: 8.91 µM | –
8 | O=C1C2=C(Nc3ccccc3SC2c2ccc(Cl)c(Cl)c2)c2ccccc21 (stereo not given) | active: 12.6 µM | –
9 | CN(C)CCCN(C(=O)c1ccco1)c1nc2ccc(Br)cc2s1 | inconclusive: 56.2 µM [inhibitor, partial curve, poor fit] | –
10 | COc1ccc(OC)c(-n2c(SCC(=O)NCc3ccco3)nnc2-c2c[nH]c3ccccc23)c1 | inconclusive: 79.4 µM [inhibitor, single point] | –
11 | Cc1cccc2c1N(CCOc1ccccc1)C(=O)C2=O | inconclusive: 17.8 µM [inhibitor, full curve] | –
12 | COc1cccc(N2C(=O)C(CC(=O)Nc3ccc(F)cc3)N(CCC3=CCCCC3)C2=O)c1 (stereo not given) | inactive | –
13 | COc1ccccc1NC(CC(=O)c1ccccc1)C(=O)OCC(=O)c1ccc(F)cc1 (stereo not given) | inconclusive: 20 µM [inhibitor, single point] | –
14 | O=C(NCc1cccnc1)C(=O)C1C(=O)Nc2ccccc21 (stereo not given) | inconclusive: 50.1 µM [inhibitor, partial curve] | –
15 | COc1ccc(CCN(C)Cc2ccc(OC)c(OCc3ccccc3)c2)cc1OC | inconclusive: 25.1 µM [inhibitor, single point] | –
16 | CC(=O)N1CC=C2C(C#N)=C(N)C(C#N)(C#N)C(C)C2C1 (stereo not given) | inconclusive: 14.1 µM [inhibitor, partial curve, poor fit] | –
17 | COc1cc(C2=NOC(C(=O)N3CCN(c4ccc(F)cc4)CC3)C2)cc(OC)c1OC (stereo not given) | inconclusive: 11.2 µM [inhibitor, partial curve, poor fit] | –
18 | O=C(C1CCCN(S(=O)(=O)c2cccc3nsnc23)C1)N1CCc2ccccc2C1 (stereo not given) | inconclusive: 50.1 µM [inhibitor, partial curve] | –
19 | COc1ccc(-c2cc3ccccc3oc2=O)cc1NC(=S)NC(=O)c1ccc2c(c1)OCCO2 | inconclusive: 17.8 µM [inhibitor, single point] | –
20 | CCOc1ccc(NC(=O)Cn2cc(C(=O)c3ccc(OCC)cc3)c(=O)c3cc4c(cc32)OCCO4)cc1 | inactive | –
21 | Cn1c(COc2ccc(Cl)cc2)nnc1SCc1ncc(-c2ccccc2)o1 | inconclusive: 0.631 µM [inhibitor, full curve, poor fit] | –
22 | Cc1cc(OCC(=O)NCc2ccccn2)c2c(C)c(Cc3ccccc3)c(=O)oc2c1 | inconclusive: 89.1 µM [inhibitor, single point] | –
23 | CC(=O)N1[C@H](Cc2ccccc2)C=C[C@]1(C)C(=O)NCCN1CCOCC1 | inconclusive: 79.4 µM [inhibitor, single point] | –

Row | SMILES | Potency | activity, negative = inhibition
24 | CC(=O)N1CCN(S(=O)(=O)c2cccc(C(=O)Nc3ccc4c(c3)CCC4)c2)CC1 | active: 28.2 µM | –
25 | O=C(CN1CCN(c2ccc(O)cc2)CC1)Nc1cc(S(=O)(=O)N2CCCC2)ccc1Cl | active: 8.91 µM | –
26 | COc1ccc(NC(=O)CN(C)S(=O)(=O)c2ccc(C(=O)N3CCOCC3)s2)cc1 | inactive | –
27 | COc1cccc(-c2nnc(NC(=O)c3ccc(Cl)s3)o2)c1 | inconclusive: 89.1 µM [inhibitor, single point] | –
28 | COc1ccc2c(c1)CC/C(=C/c1ccco1)C2=O | inconclusive: 22.4 µM [inhibitor, single point] | –
29 | CCOc1cccc2cc(C(=O)N3CCN(C/C=C/c4ccccc4)CC3)c(=O)oc12 | inconclusive: 25.1 µM [inhibitor, single point] | –
30 | COc1ccc(C)cc1S(=O)(=O)Nc1cccc(-c2ccc(N3CCC(C)CC3)nn2)c1 | inactive | –
31 | O=C1CCN(C(=O)Nc2ccccc2Cl)N1 | active: 10 µM | –
32 | CC1CCN(CC(=O)Nc2ccc(Cl)cc2[N+](=O)[O-])CC1 | inconclusive: 20 µM [inhibitor, single point] | –
33 | CCOc1ccccc1-n1c(CN2CCN(C(=O)c3ccco3)CC2)nc2ccccc2c1=O | active: 14.1 µM | –
34 | CCC(CC)C(=O)Nc1nnc(SCC(=O)NC2CC2)s1 | inactive | –
35 | COc1ccc(N2CCN(C(=O)CSc3nnnn3-c3ccc4c(c3)OCCO4)CC2)cc1 | inconclusive: 28.2 µM [inhibitor, single point] | –
36 | Cc1cccc(N2CCN(C(=O)C3CCN(Cc4nc(-c5ccc(Cl)cc5)oc4C)CC3)CC2)c1C | inactive | –
37 | CCn1cc(CN2CCc3c([nH]c4ccccc34)C2c2cccc(O)c2)c(C)n1 (stereo not given) | inconclusive: 79.4 µM [inhibitor, single point] | –
38 | Cc1ccc(NC(=S)N2CCC(N(C)CC3CCCO3)CC2)cc1 (stereo not given) | inactive | –
39 | CC1Sc2ccc(S(=O)(=O)CCC(=O)NCc3cccs3)cc2NC1=O (stereo not given) | inactive | –
40 | CC(=O)N(CN1C(=O)CCC1=O)c1cccc(Cl)c1 | inconclusive: 0.158 µM [inhibitor, full curve, poor fit] | –
41 | CN(C)c1cccc(N=C2C=C(N3CCOCC3)CC(C)(C)C2)c1 | active: 3.16 µM | –
42 | O=C(COC(=O)c1ccc(F)c(S(=O)(=O)N2CCOCC2)c1)NC1CCCCC1 | inconclusive: 25.1 µM [inhibitor, single point] | –
43 | Cc1ccc(C)c(NC(=O)C2CC(O)CN2C(=O)Oc2ccccc2)c1 (stereo not given) | inconclusive: 89.1 µM [inhibitor, single point] | –
44 | COc1ccc(N2CCN(C3CCCN(C(=O)c4cccc(C)n4)C3)CC2)cc1 (stereo not given) | active: 50.1 µM | –
45 | COc1ccc(-c2cc(C(F)(F)F)n3nc(N)nc3n2)cc1 | inconclusive: 31.6 µM [inhibitor, single point] | –
